{"source": "PubChem BioAssay AID504332", "about": "(National Center for Advancing Translational Sciences (NCATS), 2011)", "note": "About 31,000 (8.9%) of roughly 350,000 compounds were called active. Inconclusive means that the source gave no clear call. Such entries were picked first, then a sample of the others. The call rests on the fitted dose curve; in most records, active means well fitted inhibition curve with a large enough effect; inconclusive means small, poorly fitted or top-dose-only effect; inactive means no such curve, though single readings can be large or run the other way. Where the call is inconclusive, the potency comes from a doubtful curve fit."}
{"biological_target": "Histone-lysine N-methyltransferase EHMT2 (Homo sapiens) (UniProt Q96KQ7)", "sequence (Q96KQ7 whole entry, looked up)": "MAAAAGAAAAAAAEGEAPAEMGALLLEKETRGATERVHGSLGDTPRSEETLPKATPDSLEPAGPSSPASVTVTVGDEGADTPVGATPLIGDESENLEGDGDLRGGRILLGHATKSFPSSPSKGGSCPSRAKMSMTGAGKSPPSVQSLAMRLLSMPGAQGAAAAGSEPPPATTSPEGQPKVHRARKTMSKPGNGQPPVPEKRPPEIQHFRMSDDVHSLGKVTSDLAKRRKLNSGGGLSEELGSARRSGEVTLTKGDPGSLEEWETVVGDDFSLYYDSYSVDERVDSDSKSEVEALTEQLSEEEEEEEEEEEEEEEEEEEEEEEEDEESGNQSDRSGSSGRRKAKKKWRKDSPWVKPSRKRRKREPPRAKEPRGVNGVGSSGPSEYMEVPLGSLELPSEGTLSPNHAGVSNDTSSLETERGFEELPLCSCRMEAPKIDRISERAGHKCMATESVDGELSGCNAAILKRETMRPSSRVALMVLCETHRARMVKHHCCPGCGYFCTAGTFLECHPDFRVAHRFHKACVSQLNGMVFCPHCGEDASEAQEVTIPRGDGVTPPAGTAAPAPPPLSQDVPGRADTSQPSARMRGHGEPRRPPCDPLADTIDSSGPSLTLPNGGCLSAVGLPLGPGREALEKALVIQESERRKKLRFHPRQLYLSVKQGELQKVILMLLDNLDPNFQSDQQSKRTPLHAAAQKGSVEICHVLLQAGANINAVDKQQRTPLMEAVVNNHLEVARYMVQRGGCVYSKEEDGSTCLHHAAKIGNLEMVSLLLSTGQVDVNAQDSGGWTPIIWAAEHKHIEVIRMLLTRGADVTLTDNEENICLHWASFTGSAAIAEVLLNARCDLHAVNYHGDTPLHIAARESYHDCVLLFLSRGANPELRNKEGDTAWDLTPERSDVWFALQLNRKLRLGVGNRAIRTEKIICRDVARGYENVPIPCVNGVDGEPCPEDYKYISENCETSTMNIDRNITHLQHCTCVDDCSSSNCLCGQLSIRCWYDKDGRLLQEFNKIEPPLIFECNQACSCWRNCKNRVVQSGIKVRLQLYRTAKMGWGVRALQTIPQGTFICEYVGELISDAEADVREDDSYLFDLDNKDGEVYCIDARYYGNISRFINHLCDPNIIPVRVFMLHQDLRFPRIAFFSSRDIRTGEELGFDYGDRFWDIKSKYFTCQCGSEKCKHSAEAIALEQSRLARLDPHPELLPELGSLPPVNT", "experiment": "qHTS Assay for Inhibitors of Histone Lysine Methyltransferase G9a; further: nearly all actives have a fitted effect of over 75% in size; further: potency means the concentration at half of the fitted maximal effect; tags describe the fitted curve by direction and shape; on activity, negative = inhibition: on the % scale 0 is the no-effect control and ±100 the full control effect", "conditions": "G9a H3K9 monomethylation, AlphaScreen, 2 h; activity, negative = inhibition: at 59 µM (top of the series) unless noted", "method_in_brief": "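AlphaScreen detection with an anti-monomethyl H3K9 antibody quantified product after a 2 h room-temperature reaction containing 500 nM biotinylated H3K9 peptide, 20 µM SAM and 20 nM enzyme, which had been preincubated 15 min with compound.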"}
{"molecule": "CC1CCCN(CCCCOc2cccc(Br)c2)C1", "note": "(configuration not stated)", "Potency": "inconclusive: 14.1 µM [inhibitor, partial curve, poor fit]"}
{"molecule": "O=C1CC(SCCc2nc3ccccc3[nH]2)C(=O)N1c1ccc(F)cc1", "note": "(configuration not stated)", "Potency": "active: 44.7 µM"}
{"molecule": "CC(=O)c1cccc(N=Nc2c(C)[nH]c3ccccc23)c1", "Potency": "active: 10 µM"}
{"molecule": "COc1ccc(N2CCN(C(=O)c3ccc(NC(=O)C4=CSCCO4)cc3)CC2)cc1", "Potency": "inconclusive: 17.8 µM [inhibitor, single point]"}
{"molecule": "CC(C(N)=O)N1C(=O)c2cccc3cccc1c23", "note": "(configuration not stated)", "Potency": "inconclusive: 56.2 µM [inhibitor, partial curve]"}
{"molecule": "CC1(C)CC(=O)C(C=NCCN2CCN(CC(=O)Nc3ccccc3)CC2)=C(O)C1", "Potency": "inconclusive: 89.1 µM [inhibitor, single point]"}
{"molecule": "O=C(O)c1ccccc1-c1ccccc1C(=O)NCCc1ccccc1", "Potency": "inactive"}
{"molecule": "COc1ccc(C(C(=O)NC(C)(C)C)N(Cc2ccccc2)C(=O)CCC(=O)Nc2cc(C)on2)cc1", "note": "(configuration not stated)", "Potency": "inconclusive: 89.1 µM [inhibitor, single point]"}
{"molecule": "O=c1cc(-c2ccc(F)cc2)nc(SCc2nc(-c3ccccc3Cl)no2)[nH]1", "Potency": "inactive"}
{"molecule": "Cc1cc(O)cc2c(=O)c3ccccc3sc12", "Potency": "inactive"}
{"molecule": "O=C(OCC(=O)c1c[nH]c2ccccc12)c1ccco1", "Potency": "inconclusive: 89.1 µM [inhibitor, single point]"}
{"molecule": "CCN(CC)S(=O)(=O)c1ccc2c(c1)nc(CCC(=O)Nc1ccc(N3CCOCC3)cc1)n2C", "Potency": "active: 44.7 µM"}
{"molecule": "CCc1ccc(/C=C2\\Oc3cc(OC(=O)N4CCOCC4)ccc3C2=O)cc1", "Potency": "inconclusive: 35.5 µM [inhibitor, single point]"}
{"molecule": "Cc1ccc([N+](=O)[O-])cc1S(=O)(=O)N1CCCC1", "Potency": "inconclusive: 56.2 µM [inhibitor, partial curve, poor fit]"}
{"molecule": "CC(C)Cc1cc(C(=O)O)n[nH]1", "activity, negative = inhibition": "inactive: -49.4% [at 12.7 µM]"}
{"molecule": "O=C(Cc1csc(-c2ccccc2)n1)NCc1ccco1", "Potency": "inconclusive: 89.1 µM [inhibitor, single point]"}
{"molecule": "COc1ccc(NC(=O)c2ccc(-c3ccccc3C(F)(F)F)o2)cc1", "Potency": "active: 70.8 µM"}
{"molecule": "CN(C)C(=O)c1ccc(NC(=O)c2ccccc2SCC(=O)N2CCCC2)cc1", "Potency": "inconclusive: 39.8 µM [inhibitor, single point]"}
{"molecule": "O=C(COc1ccccc1Cl)Nc1ccc(Cl)c(-c2nc3ccccc3o2)c1", "Potency": "inactive"}
{"molecule": "O=C(O)C(CCCCNS(=O)(=O)c1ccc(F)cc1)NS(=O)(=O)c1ccc(F)cc1", "note": "(configuration not stated)", "Potency": "inactive"}
{"molecule": "COC(=O)c1ccc(-c2noc(CN(Cc3ccncc3)CC3CCCO3)n2)cc1", "note": "(configuration not stated)", "Potency": "inconclusive: 31.6 µM [inhibitor, partial curve, poor fit]"}
{"molecule": "Cc1ccc([N+](=O)[O-])cc1S(=O)(=O)NCc1cccnc1", "Potency": "inconclusive: 0.126 µM [inhibitor, full curve, poor fit]"}
{"molecule": "Cc1oc(-c2cccc(Cl)c2)nc1CSc1nc2ncccc2[nH]1", "Potency": "inconclusive: 14.1 µM [inhibitor, partial curve]"}
{"molecule": "N#CC1=C(N)NC(SCC(=O)c2ccccc2)=C(C#N)C12CCCC2", "Potency": "active: 50.1 µM"}
{"molecule": "Cc1ccc(-n2ccnc(NCCc3ccc(S(N)(=O)=O)cc3)c2=O)cc1C", "Potency": "inactive"}
{"molecule": "COc1ccc(S(=O)(=O)Nc2nnc(C)s2)cc1", "Potency": "inconclusive: 44.7 µM [inhibitor, partial curve, poor fit]"}
{"molecule": "CCc1cccc(C)c1Nc1c(-c2cccc(O)c2)nc2cnccn12", "Potency": "inactive"}
{"molecule": "CSC1=C(C#N)C(c2ccccc2Cl)C(C(=O)c2cccs2)C(O)(C(F)(F)F)N1", "note": "(configuration not stated)", "Potency": "inconclusive: 0.891 µM [inhibitor, full curve, poor fit]"}
{"molecule": "O=S(=O)(NC1CC2CCC1C2)c1ccc(Br)cc1", "note": "(configuration not stated)", "Potency": "inactive"}
{"molecule": "COC(=O)c1sc(SC)c(S(=O)(=O)C(C)C)c1N/N=C(\\C#N)C(=O)c1ccccc1", "Potency": "active: 44.7 µM"}
{"molecule": "Cc1nc2n(n1)C(c1ccccc1)C1=C(CC(c3ccco3)CC1=O)N2", "note": "(configuration not stated)", "Potency": "active: 44.7 µM"}
{"molecule": "COc1cc(C(=O)CSc2nncn2C)cc(OC)c1OC", "Potency": "active: 39.8 µM"}
{"molecule": "CC(Nc1nc(-c2ccc3c(c2)NC(=O)CO3)cs1)c1ccccc1", "note": "(configuration not stated)", "Potency": "inconclusive: 50.1 µM [inhibitor, partial curve, poor fit]"}
{"molecule": "Cc1oc2c(O)c(O)ccc2c(=O)c1-c1ccccc1", "Potency": "inconclusive: 1.26 µM [inhibitor, partial curve, poor fit]"}
{"molecule": "Cc1cccc(C)c1N1C(=O)CC(N(O)c2ccccc2)C1=O", "note": "(configuration not stated)", "Potency": "inconclusive: 2.24 µM [inhibitor, partial curve, poor fit]"}
{"molecule": "COc1ccc(/C=C/c2nc(C#N)c(NC3CCCCC3)o2)cc1OC", "Potency": "inactive"}
{"molecule": "CCN(CC)c1ccc(S(=O)(=O)N2CCOCC2)cc1NC(=O)COC(=O)c1cccnc1SC", "Potency": "inactive"}
{"molecule": "O=C1NC(c2ccc(Cl)c([N+](=O)[O-])c2)Nc2ccccc21", "note": "(configuration not stated)", "Potency": "inconclusive: 89.1 µM [inhibitor, partial curve, poor fit]"}
{"molecule": "Cn1c(CCC(=O)Nc2cc(S(C)(=O)=O)ccc2Cl)nc2cc(S(=O)(=O)N3CCOCC3)ccc21", "Potency": "active: 10 µM"}
{"molecule": "COc1cc(OC)c(C2=NOC(C(=O)N3CCc4ccccc4C3)C2)cc1Cl", "note": "(configuration not stated)", "Potency": "inconclusive: 79.4 µM [inhibitor, partial curve, poor fit]"}
{"molecule": "Cc1onc(-c2ccccc2)c1C1=N/C(=C\\c2ccccc2F)C(=O)O1", "Potency": "inactive"}
{"molecule": "Cc1c(C)n(C)c2ccc(C(=O)N3CCN(c4ccccn4)CC3)cc12", "Potency": "inconclusive: 89.1 µM [inhibitor, single point]"}
{"molecule": "Nc1c(Br)c(=O)[nH]c(=O)n1-c1ccc(F)cc1", "Potency": "inactive"}
{"molecule": "Cc1cc(Nc2ccc(F)cc2Cl)n2ncnc2n1", "Potency": "inconclusive: 1 µM [inhibitor, full curve, poor fit]"}
{"molecule": "O=C(CCN1CCCCCC1)Nc1cccc(Cl)c1", "Potency": "inconclusive: 89.1 µM [inhibitor, single point]"}
{"molecule": "O=C(CN(Cc1ccco1)C(=O)c1cccc(F)c1)Nc1ccccc1C(F)(F)F", "activity, negative = inhibition": "inactive: -6.99% [at 12.7 µM]"}
{"molecule": "CCN(CC)c1ccc(C(=O)NNC(=O)c2cccn2C)cc1", "Potency": "inconclusive: 79.4 µM [inhibitor, partial curve, poor fit]"}
{"molecule": "CCOc1ccccc1Nc1nnc(SCC(=O)Nc2nc(-c3ccc(OC)cc3)cs2)s1", "Potency": "active: 8.91 µM"}
{"molecule": "CCOc1ccccc1NC(=O)Cn1nc2c3cc(F)ccc3n(Cc3cccc(C)c3)cc-2c1=O", "Potency": "inconclusive: 6.31 µM [inhibitor, single point]"}
{"molecule": "CCc1ccc(OC(C)c2nnc(SCC(=O)Nc3ncccc3C)n2C)cc1", "note": "(configuration not stated)", "Potency": "active: 11.2 µM"}
{"molecule": "Cn1c(-c2ccc(-c3ccccc3)cc2)c[nH]c1=S", "Potency": "active: 14.1 µM"}
{"molecule": "CCc1n[nH]c(=S)n1/N=C/c1c(O)ccc2ccccc12", "activity, negative = inhibition": "inconclusive: -55.6% [inhibitor] [at 0.501 µM]"}
{"molecule": "CCN(CC)CCNC(=O)c1ccc(NC(=O)Cc2cccc3ccccc23)cc1", "Potency": "inconclusive: 22.4 µM [inhibitor, partial curve, poor fit]"}
{"molecule": "O=S(=O)(Nc1nc2cc3c(cc2nc1Cl)OCCO3)c1ccccc1", "Potency": "inconclusive: 44.7 µM [inhibitor, partial curve, poor fit]"}
{"molecule": "CCCCOc1ccc(C(=O)NCC(=O)N2CC(C)CC(C)C2)cc1", "note": "(configuration not stated)", "activity, negative = inhibition": "inactive: -3.24% [at 2.33 µM]"}
{"molecule": "CC(=O)C1=C(C)NC(C)=C(C(C)=O)C1c1cccs1", "Potency": "inconclusive: 28.2 µM [inhibitor, single point]"}
{"molecule": "Cc1ccccc1NCC(=O)N/N=C\\C=C\\c1cccc([N+](=O)[O-])c1", "Potency": "inconclusive: 79.4 µM [inhibitor, single point]"}
{"molecule": "COc1cc(C(=O)CSc2nccn2C)cc(OC)c1OC", "Potency": "inactive"}
{"molecule": "S=C(Nc1ccc(Oc2ccc(NC(=S)NC3CCCCC3)cc2)cc1)NC1CCCCC1", "Potency": "inactive"}
{"molecule": "CCCNC(=O)CCCN1C(=O)c2ccccc2Sc2ncccc21", "Potency": "inconclusive: 1.26 µM [inhibitor, full curve]"}
{"molecule": "COc1cc2c(C(=O)N3CCN(c4ccc(C)cc4)C(C)C3)cn(CC(C)C)c(=O)c2cc1OC", "note": "(configuration not stated)", "Potency": "inconclusive: 39.8 µM [inhibitor, partial curve, poor fit]"}
{"molecule": "CC1CCCN(CCOc2ccc3ccccc3c2Br)C1", "note": "(configuration not stated)", "Potency": "inconclusive: 8.91 µM [inhibitor, full curve, poor fit]"}
{"molecule": "C[n+]1c2cc(N)ccc2cc2ccc(N)cc21", "activity, negative = inhibition": "inconclusive: -82.2% [inhibitor] [at 2.33 µM]"}
{"molecule": "COc1ccc(C(C#N)=C2C=CC(=NO)C=C2)cc1", "Potency": "active: 2.24 µM"}
{"molecule": "FC(F)(F)c1cc(Cl)c2nnc(-c3cccnc3)n2c1", "Potency": "inactive"}
{"molecule": "O=C(N/N=C/c1ccccn1)C1CC1", "Potency": "active: 3.55 µM"}
{"molecule": "O=C(COc1ncnc2c(Cl)cc(Cl)cc12)Nc1cc([N+](=O)[O-])ccc1Cl", "Potency": "inconclusive: 1.41 µM [inhibitor, full curve]"}
{"molecule": "COc1ccc(C(=O)/C=C/C(=O)N(CC(=O)NC2CCCCC2)Cc2ccccc2OC)c(O)c1", "Potency": "active: 17.8 µM"}
{"molecule": "O=C(c1ccccc1)N1CCN(Cc2cccc(Oc3ccccc3)c2)CC1", "Potency": "active: 15.8 µM"}
{"molecule": "Cn1c(=O)cc(SCC(=O)Nc2cccc(C#N)c2)c2ccc(Cl)cc21", "Potency": "inconclusive: 17.8 µM [inhibitor, partial curve]"}
{"molecule": "O=C1Cc2cc(S(=O)(=O)Nc3cccc(F)c3)ccc2N1", "Potency": "inconclusive: 22.4 µM [inhibitor, single point]"}
{"molecule": "COC(=O)/C=c1/s/c(=C(/C#N)C(=O)N2CCOCC2)n(-c2ccccc2)c1=O", "Potency": "inconclusive: 28.2 µM [inhibitor, single point]"}
